Measured values published in the RNAGym collection of RNA variant scans (doi:10.1093/nar/gkz1192).
Read counts are not given, so values of variants with three or more changes are uncertain.

B1: CPEB3 Ribozyme (parent)
chain: UAACAGGGGGCCACAGCAGAAGCGUUCACGUCGCAGCCCCUGUCAGAUUCUGGUGAAUCUGCGAAUUCUGCUGUAUAUCUC

Variants of: B1
Experiment: self-cleavage, relative activity (ratio to wild type); higher = more cleavage; in vitro, sequencing
How it was run: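 Barcoded CPEB3 ribozyme mutants, produced by rounds of error-prone PCR, self-cleaved while being transcribed with T7 RNA polymerase for 5 hours at 37°C and during a subsequent 15 min DNase I step before EDTA was added. Sequencing of template-switched cDNA on Illumina gave cleaved and total reads, and DNA sequencing assigned barcodes to variants. Each variant's relative activity is its cleaved/total read fraction divided by the unmutated ribozyme's fraction, averaged across three batches. A variant needed a minimum of 5 reads.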

Variant | self-cleavage
U26A U31C U41C C59U | 0.32
U26A C59A U69C U74A | 0.09
U26A U54A U76A | 1.05
U26A C40U U72A U76C U80G | 0.33
U26A U60A U66C | 0.29
U26A A47U U72A U74A | 0.55
U26A U41A A57G | 0.16
U26A U43A A64U | 0.14
U26A U43A A64G | 0.34
U26A U31A C62G A64G U66G | 0.09
U26A C29U C34U | 0.1
U26C A28G G42U G55A A77U | 0.08
U26A A35U U51C U58C | 0.11
U26A A45G U49C A57C | 0.2
U26A U31A U51A A65G | 0.21
U26A A56G A65C | 0.16
U26A A35U U80C | 0.55
U26A C62G C71U U74C | 0.22
U26A C32U A35U G63A U67C | 0.06
U26A U41C U69C U78C | 0.16
U26A U31C U72C | 0.82
U26A C29G C44A U72A U76C | 0.09
U26A U48C U54A | 0.38
U26A C40U U51C | 0.2

Variant | self-cleavage
U26A G42A U54A U60A A77G U80C | 0.06
U26C A28G A64G | 0.12
U26A A56G U80C | 0.64
U26C A28G U48C G73C | 0.24
U26A C34A A35G A47G | 0.9
U26A U51A U69C U78A | 0.45
U26A A47U U76A | 0.33
U26A A65G C81U | 0.28
U26A U58A U67A | 0.1
U26A U43C U60C U78C | 0.11
U26A U51A U78C | 0.68
U26A U31C U41C A64G | 0.3
U26A A45G A57G U60C A65G | 0.25
U26A C40U U41A | 0.31
U26A U43A U67C | 0.08
U26A U43C U54C A64G | 0.1
U26A G46U A64G U72C | 0.17
U26A A45G A47G | 0.41
U26A U51A U66C | 0.17
U26A A57G U58G | 0.04
U26A U48C U60A U72A | 0.12
U26A A45G C59A | 0.3
U26A G36C U67C U76A | 0.09
U26A C32U U51C A64G | 0.08

Variant | self-cleavage
U26A A47G U58C A65G U67A | 0.07
U26A C34G U69A U72G | 0.12
U26A U41C A45U | 0.49
U26A U48C U76C | 0.53
U26C A28G A35U A47G A57U | 0.08
U26A C32U U51C A65G U76C U80C | 0.15
U26A U54C U66C | 0.14
U26A C37U U76C A77G | 0.38
U26A C59A A75U | 0.25
U26A C34U A47G A57G | 0.09
U26C A28G A57G U78C | 0.22
U26A U43C U67C | 0.37
U26A U72C U80C | 1.12
U26A U67C U78C | 0.29
U26A C39A U41C | 0.11
U26A U54A A64U A75U | 0.15
U26A C34U U49A | 0.15
U26A U41G U54C | 0.13
U26A A35U U78C | 0.21
U26A U31C U49C C50U | 0.45
U26A C40A U51A A56U A75G | 0.12
U26A U51C U54G A56G | 0.19
U26A U48A U49A | 0.38
U26A U43A U60A | 0.13

Variant | self-cleavage
U26A G42U A45U U48C U54A | 0.07
U26A C39A G53A | 0.22
U26A U51A A56G U72A | 0.44
U26A U31C U51A C59G U69A A77U | 0.07
U26A A56G A64U | 0.21
U26A A45G G52A A56G G63A | 0.29
U26A U49A A56U A64G U72C | 0.79
U26A G30U A47G U66C U80C | 0.06
U26A C38U U41C A56G U66C | 0.09
U26A U41C U51A A65G | 0.43
U26C A28C C38U A56G A64G U72A | 0.11
U26A U31C A45U | 0.34
U26A U60G U78A | 0.3
U26A U31A G52A U80C | 0.44
U26A A57G A65G U66A | 0.1
U26A C34U U41A A75U | 0.27
U26A U48C A77C | 0.34
U26A U48C A56G A77U | 0.28
U26A U43C U49C | 0.15
U26A A45G G63A | 0.64
U26A U43A U54A U60C U67A | 0.14
U26A A57G U72A U76A | 0.54
U26A U43C U67G C79U | 0.18
U26A A35U U54G | 0.25

Variant | self-cleavage
U26A U48C U78C | 0.52
U26C A28G U48C | 0.13
U26A U43C A56U | 0.19
U26C A28G U41A G63A | 0.31
U26A C38U G61A | 0.24
U26A A64U U72A | 0.39
U26A U54A U58C U67A U80C | 0.18
U26A U31A U54C | 0.29
U26A U60C U69C | 0.22
U26A U41C C59A | 0.09
U26A A47G A64G U74A U78C | 0.86
U26A U48C A56C U69C | 0.11
U26A U48C A64G A65C | 0.14
U26A U49C U80A | 0.26
U26A U31A C37A U49C A57G U58C | 0.14
U26A U31A U51C | 0.33
U26A C32U A45G U49A A56U A57G | 0.06
U26A C38U A65G U66C U69C | 0.19
U26A G36A A45G U67A | 0.09
U26A C44U U78A | 0.56
U26A A65G A77U | 0.39
U26A U51G A64C U78C | 0.25
U26A G33A G46A U51C U66C U78C U80A | 0.12
U26A A56G U76C | 0.79

Variant | self-cleavage
U26A C40A U41C | 0.39
U26A U74C U76C | 1.2
U26A U49C A56G | 0.99
U26A U31C G33A U51A A64C | 0.06
U26A C29U U43A | 0.19
U26A C27U A28G C40G U51C U54C | 0.33
U26A U49C U54C | 0.31
U26A G30A A35U U48G A56C | 0.09
U26C A28C U67C | 0.1
U26A A47G U66C | 0.32
U26A U58A U72A | 0.19
U26A U31C U66C U80C | 0.16
U26A A56G A57G | 0.16
U26A G30A A57G U67A U69C U78A | 0.08
U26A C32U U54C | 0.48
U26C A28G A47G A56G | 0.16
U26A A45G A56C U60C | 0.49
U26C A28G U41A A57G U78C | 0.25
U26A U43A A64G A77G | 0.24
U26A G33C G52A | 0.14
U26A U41C U51A U80A | 0.33
U26A U51C A57G | 0.74
U26A U41A U67C U78C | 0.18
U26C A28C C44A | 0.06

Variant | self-cleavage
U26A G33A C34U A45G | 0.08
U26A C38U A75U | 1.06
U26A U31C U49C A64U | 0.05
U26A U51A G63A G73A | 1.23
U26A A45U A77G U80C | 0.4
U26A C29A U80C | 0.51
U26A U66C U72C | 0.45
U26A U31C A64U U67C | 0.34
U26A C62G U69G U78C | 0.2
U26A C50A U54C | 0.4
U26A U72C U76C U80A | 1.21
U26A A56U U67C | 0.25
U26A C40A U72A | 0.03
U26A A47G U69G U78C | 0.35
U26A G46A A64U U76C | 0.14
U26A A45G U58C | 0.2
U26A G52U A64G U78C | 0.72
U26C A28G A57G | 0.25
U26A U41A U72A | 0.13
U26C A28G U31A A65U | 0.06
U26A U58C A65C | 0.33
U26C A28G A35G A45C | 0.32
U26A G63C U72C | 1.09
